No constants are given. Whether binding was seen depends on the method and setting. In cells and extracts the contact can be indirect. Some entries that bind do so weakly or less than the wild type.
Columns and labels:
Assay in all cases: co-IP; FLAG-tagged PRL-3 constructs transfected in HEK293T; lysates on anti-FLAG M2 magnetic beads overnight at 4 °C; immunoblot for endogenous CNNM3
[1] = target: FLAG-tagged PRL-3 R138E (human) (UniProt O75365)
[2] = target: FLAG-tagged PRL-3 A111S (human) (UniProt O75365)
[3] = target: FLAG-tagged PRL-3 C104E (human) (UniProt O75365)
[4] = target: FLAG-tagged PRL-3 C104D (human) (UniProt O75365)
[5] = target: FLAG-tagged PRL-3 A111S+R138E (human) (UniProt O75365)
[6] = target: FLAG-tagged PRL-3 wild type (Phosphatase of Regenerating Liver 3) (human) (UniProt O75365)

Sequences of proteins named here, by UniProt entry; tags and fusion partners are left off. A change or cut given only in a name is not applied to a line headed by its entry.
UniProt O75365: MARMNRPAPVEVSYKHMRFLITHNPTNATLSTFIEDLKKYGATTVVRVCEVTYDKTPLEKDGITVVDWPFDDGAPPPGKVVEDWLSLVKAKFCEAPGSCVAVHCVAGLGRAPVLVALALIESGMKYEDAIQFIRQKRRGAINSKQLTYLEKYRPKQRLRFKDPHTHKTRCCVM

B1: endogenous CNNM3 (CNNM magnesium transporter) (protein, UniProt Q8NE01 1-707)
chain: MAAAVAAAGRLGWLFAALCLGNAAGEAAPGPRVLGFCLEEDGAAGAGWVRGGAARDTPDATFLLRLFGPGFANSSWSWVAPEGAGCREEAASPAGEWRALLRLRLRAEAVRPHSALLAVRVEPGGGAAEEAAPPWALGLGAAGLLALAALARGLQLSALALAPAEVQVLRESGSEAERAAARRLEPARRWAGCALGALLLLASLAQAALAVLLYRAAGQRAVPAVLGSAGLVFLVGEVVPAAVSGRWTLALAPRALGLSRLAVLLTLPVALPVGQLLELAARPGRLRERVLELARGGGDPYSDLSKGVLRCRTVEDVLTPLEDCFMLDASTVLDFGVLASIMQSGHTRIPVYEEERSNIVDMLYLKDLAFVDPEDCTPLSTITRFYNHPLHFVFNDTKLDAVLEEFKRGKSHLAIVQKVNNEGEGDPFYEVLGLVTLEDVIEEIIRSEILDESEDYRDTVVKRKPASLMAPLKRKEEFSLFKVSDDEYKVTISPQLLLATQRFLSREVDVFSPLRISEKVLLHLLKHPSVNQEVRFDESNRLATHHYLYQRSQPVDYFILILQGRVEVEIGKEGLKFENGAFTYYGVSALTVPSSVHQSPVSSLQPIRHDLQPDPGDGTHSSAYCPDYTVRALSDLQLIKVTRLQYLNALLATRAQNLPQSPENTDLQVIPGSQTRLLGEKTTTAAGSSHSRPGVPVEGSPGRNPGV
B1 was tested, and the binding [1] was “no binding”, the binding [2] was “binds” and the binding [3] was “no binding”. The binding [4] was “binds”, the binding [5] was “no binding” and the binding [6] was “binds”.
